{"source": "PubChem BioAssay AID1476", "about": "(National Center for Advancing Translational Sciences (NCATS), 2009)", "note": "In all, about 200,000 compounds went through this assay and about 4,500 (2.2%) were called active. Inconclusive means that the source gave no clear call. Such entries were picked first, then a sample of the others. Calls come from the whole dose curve; as a rule, active = well fitted inhibition curve with a large enough effect; inconclusive = small, poorly fitted or top-dose-only effect, or effect the other way; inactive = flat fitted curve, though single readings scatter. Potencies of inconclusive entries are doubtful fits and often do not repeat. Potency is the fitted concentration of half-maximal effect; tags give direction and shape of the fitted curve."}
{"target": "Cruzipain (Trypanosoma cruzi) (UniProt P25779)", "sequence (P25779 whole entry, looked up)": "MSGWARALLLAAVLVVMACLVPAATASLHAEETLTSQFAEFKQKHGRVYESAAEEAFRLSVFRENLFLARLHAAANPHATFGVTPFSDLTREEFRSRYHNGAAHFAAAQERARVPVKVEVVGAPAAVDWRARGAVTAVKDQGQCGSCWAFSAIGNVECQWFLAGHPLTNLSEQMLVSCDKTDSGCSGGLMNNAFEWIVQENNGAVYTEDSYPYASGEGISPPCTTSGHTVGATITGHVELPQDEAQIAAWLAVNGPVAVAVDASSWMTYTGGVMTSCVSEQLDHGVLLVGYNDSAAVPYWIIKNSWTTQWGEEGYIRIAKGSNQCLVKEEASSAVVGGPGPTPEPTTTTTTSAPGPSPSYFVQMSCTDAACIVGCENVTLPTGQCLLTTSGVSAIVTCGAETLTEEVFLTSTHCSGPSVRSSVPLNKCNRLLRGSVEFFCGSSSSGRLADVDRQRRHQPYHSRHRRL", "assay": "qHTS Assay for Promiscuous and Specific Inhibitors of Cruzain (without detergent); note: nearly all actives have a fitted effect of over 40% in size;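 for max response, negative = inhibition: plate controls were enzyme without inhibitor for no effect and buffer without enzyme for full effect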", "conditions": "purified cruzain, Z-FR-AMC fluorescence, no detergent", "summary_of_the_method": "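Purified cruzain at 1.5 nM, pre-incubated 15 min with compound at room temperature in 100 mM sodium acetate pH 5.5, 5 mM DTT, 0.00005% Triton X-100. Reaction started with 2 uM Z-FR-AMC; AMC fluorescence increase over 60 s gives rate.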"}
{"smiles": "COc1ccc(/C=C(/NC(=O)c2ccccc2)C(=O)N/N=C/c2cccs2)cc1OC", "Potency": "inconclusive: 39.8 µM [activator, single point]"}
{"smiles": "CCOc1ccc(C(=O)Nc2cccc(C(=O)OCc3cc(=O)n4nc(C5CC5)sc4n3)c2)cc1", "max response, negative = inhibition": "inactive: 19.6%"}
{"smiles": "Cc1ccc(NC(=O)c2cc([N+](=O)[O-])ccc2NCc2cccnc2)cc1Cl", "Potency": "inconclusive: 31.6 µM [inhibitor, single point]"}
{"smiles": "NC(=O)COc1ccccc1/C=C1/SC(=O)N(CC(=O)N2CCc3ccccc3C2)C1=O", "Potency": "inconclusive: 39.8 µM [activator, single point]"}
{"smiles": "CC(=O)Nc1ccc(S(=O)(=O)N2CCC(c3nnnn3-c3ccccc3)CC2)cc1", "max response, negative = inhibition": "inactive: 10.8%"}
{"smiles": "Cc1ccc(CN(C(=O)c2ccccc2F)c2ccccn2)o1", "max response, negative = inhibition": "inactive: 5.44%"}
{"smiles": "CCCCCCn1cnc2c(c1=O)c1nc3ccccc3nc1n2Cc1cccs1", "max response, negative = inhibition": "inactive: 3.42%"}
{"smiles": "CCOc1ccc(NC(=O)C(Cc2ccccc2)NC(=O)C2CCCCC2)cc1", "note": "(stereo not drawn)", "Potency": "inconclusive: 39.8 µM [inhibitor, single point]"}
{"smiles": "Cc1noc(C)c1C(=O)N1CCN(C(=O)c2sc3cc(Cl)ccc3c2Cl)CC1", "Potency": "inconclusive: 31.6 µM [activator, single point]"}
{"smiles": "CCc1ccc(-c2cc(C(=O)NCc3ccco3)c3ccccc3n2)s1", "max response, negative = inhibition": "inactive: -8.4%"}
{"smiles": "N#C/C(=C\\c1ccc(Br)s1)C(=O)N1CCN(c2ccccc2)CC1", "max response, negative = inhibition": "inactive: -14.2%"}
{"smiles": "Cc1cccc(N2C(=O)CS(=O)(=O)C23C(=O)N(Cc2c(F)cccc2Cl)c2ccccc23)c1", "note": "(stereo not drawn)", "Potency": "active: 3.16 µM"}
{"smiles": "CC(=O)N1CCc2cc(Br)cc(S(=O)(=O)N3CCN(C(=O)c4ccco4)CC3)c21", "Potency": "inconclusive: 39.8 µM [activator, single point]"}
{"smiles": "CCOC(=O)c1c(NC(=O)CSc2nnc(-c3ccncc3)n2Cc2ccco2)sc(C)c1C", "Potency": "inconclusive: 31.6 µM [activator, single point]"}
{"smiles": "O=C(NC(=S)N1CCN(c2ccc(Cl)cc2[N+](=O)[O-])CC1)c1cccs1", "Potency": "inconclusive: 31.6 µM [inhibitor, single point]"}
{"smiles": "CCOc1ccc(CC(=O)Nc2c(C(N)=O)oc3ccccc23)cc1OCC", "Potency": "inconclusive: 39.8 µM [activator, single point]"}
{"smiles": "COc1ccc2[nH]cc(CCNc3cc(-c4ccccc4C(F)(F)F)ncn3)c2c1", "max response, negative = inhibition": "inactive: -8.73%"}
{"smiles": "OCCN1CCN(C(c2ccccc2Cl)c2sc3nc(-c4ccco4)nn3c2O)CC1", "note": "(stereo not drawn)", "max response, negative = inhibition": "inactive: -12.6%"}
{"smiles": "O=C(COC(=O)CNC(=O)c1ccccc1Cl)Nc1ncc(C(F)(F)F)cc1Cl", "Potency": "active: 1.26 µM"}
{"smiles": "CCc1ccccc1NC(=O)Cn1nc(C(F)(F)F)c2c1CCCC2", "max response, negative = inhibition": "inactive: -3.05%"}
{"smiles": "COc1ccc(-n2c(C)cc(/C=C3\\SC(=S)N(Cc4ccco4)C3=O)c2C)cc1", "Potency": "active: 7.94 µM"}
{"smiles": "CCCCCCC(=O)Nc1nc(C)c(-c2csc(Nc3cccc(OC)c3)n2)s1", "Potency": "active: 10 µM"}
{"smiles": "COc1ccc2nc(SC(C(=O)c3ccccc3)c3ccccc3)nc(C)c2c1", "note": "(stereo not drawn)", "Potency": "inconclusive: 31.6 µM [inhibitor, single point]"}
{"smiles": "CCn1c(Cc2ccccc2)nnc1SCC(=O)Nc1nc(C)c(C)s1", "Potency": "inconclusive: 39.8 µM [inhibitor, single point]"}
{"smiles": "O=C(COC(=O)c1ccc2ccccc2c1)Nc1ncc(C(F)(F)F)cc1Cl", "max response, negative = inhibition": "inactive: -5.1%"}
{"smiles": "Cc1cc2c(=O)n(Cc3ccco3)c(SCC(=O)c3ccc(Cl)s3)nc2s1", "Potency": "active: 25.1 µM"}
{"smiles": "COc1ccc2c(c1)N(CC[C@H]1CCCCN1C)c1ccccc1S2", "max response, negative = inhibition": "inactive: -3.84%"}
{"smiles": "C=CCNC(=O)c1c(N)n(-c2cccc(S(N)(=O)=O)c2)c2nc3ccccc3nc12", "Potency": "inconclusive: 25.1 µM [activator, partial curve]"}
{"smiles": "O=[N+]([O-])c1c(Cl)cc(Cl)cc1Cl", "max response, negative = inhibition": "inactive: -7.32%"}
{"smiles": "CCOc1ccc2nc(N3CCCC(C(=O)Nc4cc(Cl)c(OC)cc4OC)C3)sc2c1", "note": "(stereo not drawn)", "max response, negative = inhibition": "inactive: -12.8%"}
{"smiles": "Cc1c(C(=O)Nc2cccc(-c3nc4ccccc4s3)c2)oc2ccccc12", "max response, negative = inhibition": "inactive: 4.62%"}
{"smiles": "Cc1ccc(-n2c(CCc3ccccc3)nnc2SCC(=O)NCc2ccccc2)cc1C", "Potency": "inconclusive: 12.6 µM [activator, partial curve]"}
{"smiles": "CCCCOC(=O)Nc1nc2ccccc2s1", "Potency": "inconclusive: 25.1 µM [inhibitor, single point]"}
{"smiles": "O=C(COc1cccc(Cl)c1)N/N=C\\c1cc2ccccc2nc1Cl", "max response, negative = inhibition": "inactive: -18.5%"}
{"smiles": "C#CCOc1ccc(C2CC(=O)Nc3c2c(C)nn3-c2nc(C)cc(C)n2)cc1", "note": "(stereo not drawn)", "Potency": "inconclusive: 39.8 µM [activator, single point]"}
{"smiles": "Cc1cc(NC(=O)c2cc(CC(C)C)on2)no1", "max response, negative = inhibition": "inactive: -6.46%"}
{"smiles": "Cc1cc(NC(=O)C2CCN(S(=O)(=O)c3cccc4nsnc34)CC2)ccc1Br", "max response, negative = inhibition": "inactive: -18.1%"}
{"smiles": "O=C(Cc1c(Sc2ccccc2)c2ccccc2n1Cc1ccccc1)NCCO", "Potency": "inconclusive: 31.6 µM [activator, partial curve]"}
{"smiles": "N#Cc1ccsc1NC(=O)CSc1ncnc2ccccc12", "Potency": "active: 15.8 µM"}
{"smiles": "NC(=O)C1(N2CCCCC2)CCN(C(=O)Nc2ccc(F)cc2F)CC1", "Potency": "inconclusive: 0.126 µM [inhibitor, full curve, poor fit]"}
{"smiles": "CCC1CN(S(=O)(=O)c2cc(-c3onc(C)c3C)ccc2C)c2cc(Cl)ccc2O1", "note": "(stereo not drawn)", "Potency": "inconclusive: 10 µM [inhibitor, partial curve, poor fit]"}
{"smiles": "CCCC(C(=O)NCc1ccc(OC)cc1)N(Cc1ccco1)C(=O)c1snc(C(N)=O)c1N", "note": "(stereo not drawn)", "max response, negative = inhibition": "inactive: -7.33%"}
{"smiles": "COc1ccc2nc(/N=C/c3c(C)[nH]n(-c4ccc(C)cc4)c3=O)sc2c1", "Potency": "inconclusive: 25.1 µM [activator, partial curve, poor fit]"}
{"smiles": "CCOC(=O)N1CCN(C(=O)COc2cccc3c2CCN(Cc2ccc(F)cc2)C3=O)CC1", "Potency": "inconclusive: 39.8 µM [activator, single point]"}
{"smiles": "CCn1c2ccccc2c2cc(/C=N/NC(=O)c3ccccc3C)ccc21", "Potency": "active: 31.6 µM"}
{"smiles": "Cc1cc(C)c(Cn2c(C3CC(=O)N(c4ccc(F)cc4)C3)nc3ccccc32)c(C)c1", "note": "(stereo not drawn)", "Potency": "inconclusive: 31.6 µM [inhibitor, single point]"}
{"smiles": "CC(C)OC(=O)c1c(-c2ccccc2)c(-c2ccccc2)nn(C)c1=O", "max response, negative = inhibition": "inactive: 3.65%"}
{"smiles": "CCOC(=O)c1ccc2c(c1)C1C=CCC1C(C(=O)O)N2", "note": "(stereo not drawn)", "Potency": "inconclusive: 31.6 µM [activator, partial curve]"}
{"smiles": "Cc1sc(NC(=O)Cc2ccc3c(c2)OCO3)nc1-c1ccc2c(c1)CCN2C(=O)c1cccc(F)c1", "Potency": "active: 7.94 µM"}
{"smiles": "COc1ccc(OC)c(C2=NOC(C(=O)NCc3ccco3)C2)c1", "note": "(stereo not drawn)", "max response, negative = inhibition": "inactive: 7.33%"}
{"smiles": "Cc1ccc(-c2nc3ccccc3s2)cc1NC(=O)c1ccc2c(c1)OCO2", "Potency": "inconclusive: 39.8 µM [inhibitor, single point]"}
{"smiles": "COc1ccc(-c2nnn(CC(=O)N(Cc3ccccc3Cl)C(C(=O)NCC3CCCO3)c3ccco3)n2)cc1", "note": "(stereo not drawn)", "Potency": "inconclusive: 39.8 µM [activator, single point]"}
{"smiles": "COc1cc(OC)cc(C(=O)N2CCN(C(=O)COc3ccc4ccccc4c3)CC2)c1", "Potency": "inconclusive: 31.6 µM [activator, single point]"}
{"smiles": "O=C(NCc1cccs1)C1CCN(C(=O)N2CCOc3ccc(Cl)cc32)CC1", "Potency": "inconclusive: 31.6 µM [inhibitor, single point]"}
{"smiles": "O=C(Nc1ccc(Br)cc1)c1ccc(F)c(S(=O)(=O)N2CCc3ccccc32)c1", "Potency": "inconclusive: 31.6 µM [inhibitor, single point]"}
{"smiles": "CC(=O)N1CCc2cc(CNC(=O)c3ccccc3Br)ccc21", "max response, negative = inhibition": "inactive: -11.2%"}
{"smiles": "CCN(CC)c1ccc(/C=C2/C(=O)c3ccc(C(=O)O)cc3C2=O)cc1", "Potency": "inconclusive: 39.8 µM [activator, single point]"}
{"smiles": "COc1cc2c(cc1OC)C1C(=O)c3ccc4c(c3OC1CO2)C=CC(C)(C)O4", "note": "(stereo not drawn)", "Potency": "inconclusive: 39.8 µM [activator, single point]"}
{"smiles": "O=C(Nc1nccs1)C1CCCN(S(=O)(=O)c2cccc3cccnc23)C1", "note": "(stereo not drawn)", "max response, negative = inhibition": "inactive: 3.16%"}
{"smiles": "COC(=O)c1c(NS(=O)(=O)c2ccc3ccccc3c2)sc2c1CCCC2", "Potency": "inconclusive: 31.6 µM [inhibitor, single point]"}
{"smiles": "CC(=O)c1ccccc1NC(=O)COC(=O)c1ccc2c(c1)nc(C)n2-c1ccccc1", "Potency": "inconclusive: 39.8 µM [activator, single point]"}
{"smiles": "CCOC(=O)CNc1nc(C#N)nc(N2CCOCC2)n1", "Potency": "active: 2 µM"}
{"smiles": "Cc1ccc(S(=O)(=O)N2CCc3cc(C(=O)Nc4c(F)cccc4F)ccc32)cc1", "Potency": "inconclusive: 25.1 µM [inhibitor, single point]"}
{"smiles": "CCC(C(=O)N1CCN(c2cc(C)ccc2C)CC1)n1nc(C)n2c(cc3occc32)c1=O", "note": "(stereo not drawn)", "Potency": "inconclusive: 39.8 µM [activator, single point]"}
{"smiles": "O=C(Nc1cn(-c2ccccc2)nc1-c1ccccc1)c1ccccc1", "Potency": "inconclusive: 39.8 µM [inhibitor, single point]"}
{"smiles": "Cc1ccc(Nc2cc(C)nn2-c2nc(C)cc(C)n2)cc1", "Potency": "inconclusive: 31.6 µM [activator, single point]"}
{"smiles": "O=C(Oc1ccc([N+](=O)[O-])cc1)c1cc(-c2ccccc2)nc2ccccc12", "Potency": "inconclusive: 39.8 µM [inhibitor, single point]"}
{"smiles": "CSCC[C@H](NC(=O)COc1ccc(Cl)cc1)c1nc2ccccc2[nH]1", "Potency": "active: 12.6 µM"}
